The list shows a part of the results. Single values are uncertain, as repeats are few or missing.
How the values were obtained:
Experiment in all cases: cell count relative to DMSO control; melanoma cells; higher = more viable cells
Conditions in all cases: library dose: standard library concentration; 72 h
[1] = test system: SkMel28
[2] = test system: SkMel2
[3] = test system: SkMel30
[4] = test system: SkMel5
[5] = test system: UACC257
[6] = test system: UACC62
[7] = test system: WM115
[8] = test system: WM1716
[9] = test system: WM1745
[10] = test system: WM3526
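Further: cells treated in 1,536-well plates, then fixed and DAPI-stained, with nuclei counted from automated high-throughput microscope images.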

SMILES | cell count [1] [%] | cell count [2] [%] | cell count [3] [%] | cell count [4] [%] | cell count [5] [%] | cell count [6] [%] | cell count [7] [%] | cell count [8] [%] | cell count [9] [%] | cell count [10] [%]
C[C@]12O[C@H](C[C@]1(O)CO)n1c3ccccc3c3c4c(c5c6ccccc6n2c5c31)CNC4=O [Lestaurtinib] + C#Cc1cccc(Nc2ncnc3cc(OCCOC)c(OCCOC)cc23)c1 [erlotinib] (first compound 0.02 µM, partner dose 4 µM) | 53.5 | 84.5 | 64 | 46.2 | 91.5 | 42.7 | 54.7 | 65.4 | 73.3 | 59.4
Cn1cc(C2=C(c3cn(C4CCN(Cc5ccccn5)CC4)c4ccccc34)C(=O)NC2=O)c2ccccc21 [Enzastaurin] + COc1cc(Nc2ncc(F)c(Nc3ccc4c(n3)NC(=O)C(C)(C)O4)n2)cc(OC)c1OC [Tamatinib] (first compound 4 µM, partner dose 2 µM) | 70.4 | 62.2 | 85.3 | 54.1 | 87.6 | 62.4 | 66 | 32.5 | 13.8 | 77.4
C[C@]12O[C@H](C[C@]1(O)CO)n1c3ccccc3c3c4c(c5c6ccccc6n2c5c31)CNC4=O [Lestaurtinib] + Cn1c(=O)n(-c2ccc(C(C)(C)C#N)cc2)c2c3cc(-c4cnc5ccccc5c4)ccc3ncc21 [NVP-BEZ235] (first compound 0.02 µM, partner dose 0.02 µM) | 51.2 | 71.6 | 58 | 48.2 | 83.3 | 83.3 | 54.2 | 73.5 | 65.2 | 58.1
C[C@]12O[C@H](C[C@]1(O)CO)n1c3ccccc3c3c4c(c5c6ccccc6n2c5c31)CNC4=O [Lestaurtinib] + OCc1c[nH]c2ccccc12 [Indole-3-carbinol] (first compound 0.02 µM, partner dose 4 µM) | 69.6 | 100 | 75.6 | 75.8 | 106 | 91.3 | 68.9 | 109 | 88.3 | 79.8
N.N.[Cl][Pt][Cl] [cisplatin] + OCCn1cc(-c2cnc3nnn(Cc4ccc5ncccc5c4)c3n2)cn1 [PF04217903] (first compound 8 µM, partner dose 5 µM) | 81 | 98.5 | 121 | 84.1 | 86.4 | 99.1 | 101 | 111 | 69.4 | 107
Cn1cc(C2=C(c3cn(C4CCN(Cc5ccccn5)CC4)c4ccccc34)C(=O)NC2=O)c2ccccc21 [Enzastaurin] + N.N.[Cl][Pt][Cl] [cisplatin] (first compound 4 µM, partner dose 8 µM) | 121 | 115 | 95.3 | 99.7 | 107 | 120 | 110 | 104 | 87.2 | 123
C[As](C)SC[C@H](NC(=O)CC[C@H](N)C(=O)O)C(=O)NCC(=O)O [Darinaparsin] + Oc1cc(-c2nc(-c3ccccc3)[nH]c2-c2ccncc2)ccc1Cl [L779450] (first compound 2 µM, partner dose 1 µM) | 29.6 | 32.3 | 92.8 | 59.7 | 92.6 | 51.3 | 55.8 | 57.9 | 64.9 | 43.9
Cn1cc(C2=C(c3cn(C4CCN(Cc5ccccn5)CC4)c4ccccc34)C(=O)NC2=O)c2ccccc21 [Enzastaurin] + Nc1ccn([C@@H]2O[C@H](CO)[C@@H](O)C2(F)F)c(=O)n1 [gemcitabine] (first compound 4 µM, partner dose 0.002 µM) | 93.9 | 113 | 107 | 112 | 91 | 70.8 | 112 | 70.2 | 58.3 | 120
C[As](C)SC[C@H](NC(=O)CC[C@H](N)C(=O)O)C(=O)NCC(=O)O [Darinaparsin] + CCN(CC)CCCCNc1ncc2cc(-c3cc(OC)cc(OC)c3)c(NC(=O)NC(C)(C)C)nc2n1 [PD173074] (first compound 2 µM, partner dose 0.5 µM) | 124 | 110 | 88.5 | 77.6 | 106 | 85.8 | 79.3 | 5.66 | 87.7 | 88.2
N.N.[Cl][Pt][Cl] [cisplatin] + C[C@]1(c2nc3c(C(N)=O)cccc3[nH]2)CCCN1 [Veliparib] (first compound 8 µM, partner dose 7 µM) | 27.1 | 41.5 | 67.7 | 65 | 67 | 48.7 | 54.1 | 73.9 | 67.1 | 78.1
C[C@]12O[C@H](C[C@]1(O)CO)n1c3ccccc3c3c4c(c5c6ccccc6n2c5c31)CNC4=O [Lestaurtinib] + CC(=O)c1c(C)c2cnc(Nc3ccc(N4CCNCC4)cn3)nc2n(C2CCCC2)c1=O [palbociclib] (first compound 0.02 µM, partner dose 0.2 µM) | 49.4 | 83.7 | 52 | 51.6 | 83.9 | 84.4 | 60 | 46.9 | 75.3 | 59.2
C[C@]12O[C@H](C[C@]1(O)CO)n1c3ccccc3c3c4c(c5c6ccccc6n2c5c31)CNC4=O [Lestaurtinib] + Cc1cc(Nc2cc(N3CCN(C)CC3)nc(/C=C/c3ccccc3)n2)n[nH]1 [ENMD2076] (first compound 0.02 µM, partner dose 0.2 µM) | 44.3 | 112 | 88.2 | 59.9 | 87.4 | 69.2 | 51.4 | 79.4 | 79.6 | 70.9
C[As](C)SC[C@H](NC(=O)CC[C@H](N)C(=O)O)C(=O)NCC(=O)O [Darinaparsin] + N#Cc1c(O)c2c(-c3ccc(-c4ccccc4O)cc3)csc2[nH]c1=O [A769662] (first compound 2 µM, partner dose 10 µM) | 64.5 | 102 | 95.5 | 55.8 | 72.6 | 91.7 | 84.9 | 71.2 | 94.4 | 80.2
N.N.[Cl][Pt][Cl] [cisplatin] + Nc1cccc2c1CN(C1CCC(=O)NC1=O)C2=O [lenalidomide] (first compound 8 µM, partner dose 5 µM) | 87.8 | 102 | 94.5 | 117 | 81.3 | 69.7 | 90.7 | 96.8 | 127 | 104
Cn1cc(C2=C(c3cn(C4CCN(Cc5ccccn5)CC4)c4ccccc34)C(=O)NC2=O)c2ccccc21 [Enzastaurin] + C[C@]1(O)C[C@@H](c2nc(-c3ccc4ccc(-c5ccccc5)nc4c3)c3c(N)nccn32)C1 [OSI906] (first compound 4 µM, partner dose 2 µM) | 66.9 | 69 | 96 | 66 | 74.7 | 93.7 | 118 | 86.9 | 46.6 | 95.6
C[C@]12O[C@H](C[C@]1(O)CO)n1c3ccccc3c3c4c(c5c6ccccc6n2c5c31)CNC4=O [Lestaurtinib] + Nc1ncn([C@H]2C[C@H](O)[C@@H](CO)O2)c(=O)n1 [decitabine] (first compound 0.02 µM, partner dose 0.5 µM) | 52.9 | 92 | 80.5 | 53.8 | 102 | 60.6 | 70.9 | 73 | 74.5 | 76.5
C[As](C)SC[C@H](NC(=O)CC[C@H](N)C(=O)O)C(=O)NCC(=O)O [Darinaparsin] + c1cc(-c2cnn3cc(-c4ccc(OCCN5CCCCC5)cc4)cnc23)ccn1 [Dorsomorphin] (first compound 2 µM, partner dose 2 µM) | 46 | 100 | 74.1 | 45 | 73.4 | 67.6 | 51.4 | 56.6 | 36.9 | 65
Cn1cc(C2=C(c3cn(C4CCN(Cc5ccccn5)CC4)c4ccccc34)C(=O)NC2=O)c2ccccc21 [Enzastaurin] + NC1(c2ccc(-c3nc4ccn5c(=O)[nH]nc5c4cc3-c3ccccc3)cc2)CCC1 [MK2206] (first compound 4 µM, partner dose 2 µM) | 60.5 | 48.4 | 83.3 | 67.8 | 89.6 | 52.2 | 88.6 | 71.6 | 46.1 | 94.3
C[As](C)SC[C@H](NC(=O)CC[C@H](N)C(=O)O)C(=O)NCC(=O)O [Darinaparsin] + Cn1nnc2c(C(N)=O)ncn2c1=O [temozolomide] (first compound 2 µM, partner dose 10 µM) | 48.6 | 89.8 | 65.7 | 49.5 | 70.4 | 63.5 | 76.7 | 55.2 | 100 | 67.9
C[As](C)SC[C@H](NC(=O)CC[C@H](N)C(=O)O)C(=O)NCC(=O)O [Darinaparsin] + CN(C)S(=O)(=O)c1ccc2c(c1)/C(=C/c1cc3c([nH]1)CCCC3)C(=O)N2 [SU6656] (first compound 2 µM, partner dose 2 µM) | 33.3 | 65.5 | 88.2 | 74.9 | 71.4 | 71.6 | 45 | 56.2 | 76.1 | 64
Cn1cc(C2=C(c3cn(C4CCN(Cc5ccccn5)CC4)c4ccccc34)C(=O)NC2=O)c2ccccc21 [Enzastaurin] + OCCn1cc(-c2cnc3nnn(Cc4ccc5ncccc5c4)c3n2)cn1 [PF04217903] (first compound 4 µM, partner dose 5 µM) | 140 | 72.4 | 124 | 88.7 | 98.5 | 75.7 | 139 | 83.3 | 58.6 | 86
N.N.[Cl][Pt][Cl] [cisplatin] + Nc1nc(F)nc2c1ncn2[C@@H]1O[C@H](CO)[C@@H](O)[C@@H]1O [fludarabine] (first compound 8 µM, partner dose 1 µM) | 2.07 | 0.913 | 10.2 | 24.6 | 27.7 | 54.5 | 89.6 | 91.6 | 106 | 15.9
